# Test results reported in PubChem BioAssay (NCATS).
# Values joined by “and” are separate entries in the source; they are usually repeats but may differ in a detail not shown here. Equal entries are not always repeated. The list shows a part of the results. These are further read-outs of the screen, such as a control signal, another cell line or another target. No call is given for them. Words in brackets tell the shape of the fitted curve; partial curves, single points and poor fits give uncertain potencies.
# Experiment: qHTS drug screen for cell cycle checkpoint inhibitors in PARPi-resistant BRCA-mutant ovarian cancer cell lines. (AID 1963452)
# Settings: PEO1/OlaR viability, CellTiter-Glo luminescence, 96 h
# Method in brief: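 PEO1, PEO4 and PEO1/OlaR ovarian cancer cells, 600 per well, exposed 96 h at 37C to a dilution series. Viability read by CellTiter-Glo luminescence, normalized to DMSO and empty wells; activity summarized as Z-AUC.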
# [1] = measured here: PEO1 parental viability
# Tags tell the direction and shape of the fitted curve.
SMILES,AC50 [1],AC50 (measured here: PEO4 viability)
Cc1c(CN2CCC(Nc3ncnc4sc(CC(F)(F)F)cc34)CC2)ccc2c1cc(C#N)n2Cc1cn[nH]c1,"3.47 µM [falling, full curve]","4.36 µM [falling, partial curve]"
COC1CC(C(=O)c2ccc3c(N)ncc(-c4ccc(-c5cnn(C)c5)cc4)c3n2)C1 (stereo not drawn),"21.9 µM [falling, single point]","8.71 µM [falling, partial curve, poor fit]"
C=C1C(=O)O[C@@H]2[C@H]3C(C)=CC[C@@]34O[C@@]4(C)CC[C@@H]12,"24.5 µM [falling, single point]","15.5 µM [falling, single point]"
CCC[C@H](N[C@H]1CCc2cc(F)cc(F)c2C1)C(=O)Nc1cn(C(C)(C)CNCC(C)(C)C)cn1,"24.5 µM [falling, single point]","13.8 µM [falling, single point]"
COc1ccc(S(=O)(=O)Nc2cc(-c3csc(C#N)c3)ccc2C)cc1,"0.049 µM [falling, full curve]","0.049 µM [falling, full curve]"
CC[C@@H](C)Nc1cc(C(=O)NC2CC3CCC(C2)N3c2ccc(C(=O)C3CC3)cn2)c(C)cc1C(N)=O (stereo partly drawn),"0.174 µM [falling, full curve]","1.95 µM [falling, partial curve]"
COc1cccc(-c2cc(F)ccc2C2Cc3nc(N)nc(C)c3C(=O)N2)n1 (stereo not drawn),"0.0549 µM [falling, full curve]","0.123 µM [falling, partial curve, poor fit]"
O=C(c1ccc(F)cc1)N1CCC[C@H](c2nc(-c3ccc(F)cc3)no2)C1,"15.5 µM [falling, partial curve]","15.5 µM [falling, single point]"
CCN1CCN(Cc2ccc(NC(=O)c3ccc(C)c(NC(=O)c4cncc(-c5cccs5)c4)c3)cc2C(F)(F)F)CC1,"0.616 µM [falling, full curve]","1.1 µM [falling, full curve]"
CNc1ncc2cc(-c3cc(NC(=O)NCCC(C)(C)C)c(F)cc3C)c(C)nc2n1,"5.49 µM [falling, partial curve]","2.45 µM [falling, partial curve]"
O=C(NO)c1ccc(C2=Nc3ccccc3Oc3ccccc32)cc1,"11 µM [falling, partial curve]","9.77 µM [falling, partial curve]"
Cc1cc(-c2nc3cc(F)ccc3s2)ccc1NC(=O)[C@@H](N)CCCCN,"19.5 µM [falling, single point]","6.92 µM [falling, partial curve]"
C=C1C(=O)O[C@H]2C[C@H](C)C(/C=C/C(C)=O)=CC[C@H]12,"3.89 µM [falling, full curve]","4.36 µM [falling, full curve]"
COCC(=O)NC/C=C/c1ccc2ncnc(Nc3ccc(Oc4ccc(C)nc4)c(C)c3)c2c1,"17.4 µM [falling, single point]","11 µM [falling, partial curve]"
C/C(=N\NC(=O)c1cccc(S(=O)(=O)N2CCOCC2)c1)c1cc(Cl)ccc1O,"1.1 µM [falling, full curve] and 1.55 µM [falling, full curve]","692 nM [falling, full curve, poor fit] and 1.38 µM [falling, full curve]"
COc1ccc([C@@H](O)[C@@H](C)Oc2ccc([C@H]3O[C@H](c4ccc(O[C@H](C)[C@H](O)c5ccc(OC)c(OC)c5)c(OC)c4)[C@H](C)[C@H]3C)cc2OC)cc1OC,"0.0039 µM [falling, full curve, poor fit]","0.0692 µM [falling, full curve, poor fit]"
CN(C)CCNC(=O)NC[C@H]1CC[C@@H]2[C@H](O1)c1cc(C(F)(F)F)ccc1N[C@H]2c1ccccc1,"0.389 µM [falling, full curve]","0.245 µM [falling, full curve]"
COc1cc(OC)c(/C=C/S(=O)(=O)Cc2ccc(OC)c(NCC(=O)O)c2)c(OC)c1,"0.0155 µM [falling, full curve]","0.0219 µM [falling, full curve]"
C=CC(=O)N1CCC(Oc2cc3c(Nc4ccc(Cl)c(Cl)c4F)ncnc3cc2OC)CC1,"7.76 µM [falling, partial curve]","15.5 µM [falling, partial curve]"
O=c1cc(N2CCOCC2)oc2c(-c3ccc4c(c3)OCCO4)csc12,"3.89 µM [falling, partial curve]","3.09 µM [falling, full curve]"

SMILES,AC50 [1],AC50 (measured here: PEO4 viability)
Cc1nnn(C)c1-c1cnc2c3ccc(C(C)(C)O)cc3n([C@H](c3ccccc3)C3CCOCC3)c2c1,"0.347 µM [falling, partial curve]","3.47 µM [falling, partial curve]"
Cc1ccc(C(=O)OCc2ccc([C@@H](CN)C(=O)Nc3ccc4cnccc4c3)cc2)c(C)c1,"9.52 µM [falling, partial curve, poor fit]","6.01 µM [falling, partial curve]"
Cc1cc(Nc2cc(N3CCN(C)CC3)nc(/C=C/c3ccccc3)n2)n[nH]1,"6.16 µM [falling, partial curve]","6.92 µM [falling, partial curve, poor fit]"
Cc1cnc(Nc2ccc(F)cc2Cl)nc1-c1c[nH]c(C(=O)NC(CO)c2cccc(Cl)c2)c1 (stereo not drawn),"6.16 µM [falling, partial curve, poor fit]","4.36 µM [falling, full curve]"
COc1ccccc1C(=O)Nc1cc2c(cc1N1CCCC1)n(C)c(=O)n2C,"2.19 µM [falling, partial curve, poor fit]","27.5 µM [falling, single point]"
C[C@@H](OC[C@@]1(c2ccccc2)CC[C@]2(CCC(=O)N2)CN1)c1cc(C(F)(F)F)cc(C(F)(F)F)c1,"15.5 µM [falling, single point]","13.8 µM [falling, single point]"
Cc1ccc(NC(=O)Nc2cc(C(F)(F)F)ccc2F)cc1Nc1ccc2c(c1)NC(=O)/C2=C\c1ccc[nH]1,"27.5 µM [falling, single point]","13.8 µM [falling, partial curve]"
CCCCCCCOc1ccc(CCC(N)(CO)CO)cc1C(F)(F)F,"19.5 µM [falling, single point]","12.3 µM [falling, partial curve]"
N#Cc1ccc(-c2c(-c3ncn[nH]3)sc(N3CCOCC3)c2C#N)c(F)c1,"5.49 µM [falling, partial curve]","4.36 µM [falling, partial curve]"
COc1ccc(-c2cc(C(O)C3CCCCN3)c3ccccc3n2)cc1 (stereo not drawn),"12.3 µM [falling, partial curve]","24.5 µM [falling, single point]"
Cc1ccc(NC(=O)c2ccc3c(c2)OCCO3)cc1NC(=O)c1ccc2nc(OCCN3CCCC3)ccc2c1,"0.169 µM [falling, full curve]","0.12 µM [falling, full curve]"
COc1cccc(Nc2ncnn3ccc(CN4CC[C@@H](N)[C@H](O)C4)c23)c1,"3.09 µM [falling, partial curve]","3.47 µM [falling, partial curve, poor fit]"
CCC1=C[C@@H]2CN(C1)Cc1c([nH]c3ccccc13)[C@@](C(=O)OC)(c1cc3c(cc1OC)N(C)[C@H]1[C@@](O)(C(=O)OC)[C@H](OC(C)=O)[C@]4(CC)C=CCN5CC[C@]31[C@@H]54)C2,"0.425 µM [falling, full curve]","0.535 µM [falling, full curve]"
Cn1nccc1Nc1nccc(-c2ccn([C@H](CO)c3ccc(Cl)c(F)c3)c(=O)c2)n1,"2.75 µM [falling, full curve]","19.5 µM [falling, single point]"
C[C@@H](N)C1CCC(C(=O)Nc2ccncc2)CC1 (stereo partly drawn),"11 µM [rising, partial curve, poor fit]","0.0275 µM [rising, full curve, poor fit]"
OC1CCC(Oc2cccc3cnc(Nc4ccc5nc[nH]c5c4)nc23)CC1 (stereo not drawn),"0.776 µM [falling, full curve]","0.776 µM [falling, full curve, poor fit]"
N#Cc1cc2cc(CN3CCC(Nc4ncnc5sc(CC(F)(F)F)cc45)CC3)c(O)cc2n1Cc1cn[nH]c1,"15.5 µM [falling, partial curve]","17.4 µM [falling, partial curve]"
COc1cc(C(=O)NC(N)=Nc2ccc(C)c(NC(=O)c3ccc(-c4ccccc4)cc3)c2)cc(OC)c1OC,"17.4 µM [falling, partial curve]","11 µM [falling, partial curve]"
CN1CCN(c2ccc(OC(F)(F)F)c(Nc3ncc4c(n3)-c3c(c(C(N)=O)nn3CCO)CC4)c2)CC1,"0.049 µM [falling, full curve]","0.0616 µM [falling, full curve]"
